About 100 (0.036%) of roughly 280,000 compounds were called active. This list was built around the results that the source calls inconclusive (neither active nor inactive); the mix of calls is not that of the screen. Calls follow the shape of the dose curve; as a rule, active = well fitted inhibition curve with a large enough effect in the signal ratio, with a control signal flat (not every such curve was filed as active); inconclusive = small, poorly fitted or top-dose-only effect, or effect the other way, or a change in a side signal; inactive = no such curve, though single readings can be large or run the other way; the % refers to the signal ratio. Where the call is inconclusive, the potency comes from a doubtful curve fit. A note “side channel” means that the fit belongs to a control or component signal, not to the main read-out.
These molecules were tested against Muscleblind-like protein 1 (Homo sapiens) (UniProt Q9NR56) (assay: qHTS Assay for Inhibitors of MBNL1-poly(CUG) RNA binding). Conditions: TR-FRET MBNL1-His/biotin-(CUG)12 binding, 665/545 ratio; series mostly up to 57.5 µM.
Chain of UniProt Q9NR56 (Q9NR56 whole entry, looked up): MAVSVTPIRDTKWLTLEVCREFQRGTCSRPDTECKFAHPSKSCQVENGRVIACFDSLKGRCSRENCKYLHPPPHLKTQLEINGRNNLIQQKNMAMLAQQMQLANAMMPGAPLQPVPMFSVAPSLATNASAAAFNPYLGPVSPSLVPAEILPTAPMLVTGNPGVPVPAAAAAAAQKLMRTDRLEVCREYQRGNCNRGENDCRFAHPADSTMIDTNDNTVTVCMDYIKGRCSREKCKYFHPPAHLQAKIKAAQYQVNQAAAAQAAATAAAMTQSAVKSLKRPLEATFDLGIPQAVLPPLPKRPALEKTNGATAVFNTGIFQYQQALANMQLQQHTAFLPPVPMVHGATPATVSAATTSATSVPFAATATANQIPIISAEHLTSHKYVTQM
Procedure, shortened: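 Inhibition of protein-RNA binding appears as loss of TR-FRET between terbium anti-His antibody on MBNL1-His and streptavidin-XL665 on biotin-(CUG)12. Activity is normalized to buffer-only and uninhibited-complex controls.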
Potency is read from the fitted curve at half-maximal effect; tags tell the direction and shape of the fitted curve or compound fluorescence and quenching.

| Compound | Potency |
| --- | --- |
| Cc1ccc(-n2nc(C)c(C(=O)O)n2)c(C)c1 | inconclusive: 100 µM [inhibitor, single point] |
| CCOC(=O)c1csc(NC(=O)c2ccc(C#N)cc2)n1 | inconclusive: 35.5 µM [fluorescent, side channel, single point] |
| COc1ccc(CCNC(=O)Cn2cnc3c2c(=O)n(C)c(=O)n3C)cc1OC | inactive |
| CC1CCN(C(=O)/C(=C/c2ccccc2Cl)c2ccccc2)CC1 | inactive |
| COc1ccc(-c2c(-c3ccccc3OC)sc3ccccc23)cc1OC | inactive |
| COc1ccc(CNC(=O)COC(=O)c2n[nH]c3ccccc23)cc1OC | inconclusive: 0.794 µM [quencher, side channel, single point] |
| O=[N+]([O-])c1cccc(-c2ccc(C(=S)N3CCN(c4ccc(F)cc4)CC3)o2)c1 | inconclusive: 17.8 µM [quencher, side channel, single point] |
| Cc1ccccc1C(=O)NNC1=NCCC1 | inactive |
| CCC(=O)Nc1ccc(-c2nn3c(C)nnc3s2)cc1C | inactive |
| O=[N+]([O-])c1ccc(CN2CCN(c3ccccc3)CC2)o1 | inconclusive: 10 µM [quencher, side channel, partial curve] |
| COc1cccc(/C=N/Nc2nc3ccccc3n3cnnc23)c1O | inconclusive: 14.1 µM [quencher, partial curve] |
| Cc1nc2ccccc2c(=O)n1/N=C/c1ccc(O)c(O)c1O | inactive |
| O=C(NC(CC(=O)N1CCN(c2ccc([N+](=O)[O-])cc2)CC1)c1ccccc1)c1ccccc1Cl (centres undefined) | inconclusive: 11.2 µM [quencher, side channel, partial curve] |
| COc1ccc(N2CCN(C(=O)CCNS(=O)(=O)c3ccccc3)CC2)cc1 | inactive |
| OCCC1CN(Cc2cccc3nonc23)CCN1Cc1ccsc1 (centres undefined) | inconclusive: 17.8 µM [quencher, side channel, partial curve] |
| CC(=O)CSc1nnc(Cc2ccc([N+](=O)[O-])cc2)o1 | inconclusive: 28.2 µM [quencher, single point] |
| Cc1cnc(C(=O)OCC(=O)c2csc(N3CCCCC3)n2)cn1 | inconclusive: 15.8 µM [quencher, side channel, partial curve] |
| O=C(C1CCCN(S(=O)(=O)c2cccc3nsnc23)C1)N1CCCCCC1 (centres undefined) | inconclusive: 15.8 µM [quencher, partial curve] |
| COc1ccc(NC(=O)C(C)N2c3cccc4cccc(c34)S2(=O)=O)cc1OC (centres undefined) | inconclusive: 31.6 µM [quencher, side channel, partial curve] |
| CC1(C)CC(=O)C(=Cc2cn(CCC#N)nc2-c2ccc(F)cc2)C(=O)C1 | inconclusive: 8.91 µM [quencher, side channel, single point] |
| O=C(O)CCn1c(O)c(C=C2N=c3ccccc3=N2)sc1=S | inconclusive: 2.82 µM [quencher, side channel, full curve] |
| Cc1ccc(-n2c(-c3nn(C)c(C)c3Cl)n[nH]c2=S)cc1 | inactive |

| Compound | Potency |
| --- | --- |
| CCc1ccc(N2C(=O)Cc3c2nc(N)c(C#N)c3N)cc1 | inconclusive: 25.1 µM [quencher, side channel, partial curve] |
| O=C(NN1C(=O)c2ccccc2NC1c1ccoc1)c1ccc([N+](=O)[O-])cc1 (centres undefined) | inconclusive: 7.94 µM [quencher, side channel, partial curve] |
| Cc1ccc(C(c2c(C)[nH][nH]c2=O)c2c(C)[nH][nH]c2=O)cc1 | inactive |
| O=C(c1ccco1)N1CCN(S(=O)(=O)c2cccc3nsnc23)CC1 | inconclusive: 10 µM [quencher, side channel, partial curve] |
| CC(=O)C(C(C)=O)C(NC(=O)c1cccnc1)(C(F)(F)F)C(F)(F)F | inconclusive: 35.5 µM [fluorescent, side channel, single point] |
| O=C(NCC1CCCO1)c1cc2ccccc2oc1=O (centres undefined) | inconclusive: 14.1 µM [quencher, side channel, partial curve] |
| N#Cc1c(SCC(=O)Nc2ccc(Cl)cc2Cl)sc2c(O)cc(=O)[nH]c12 | inconclusive: 28.2 µM [quencher, single point] |
| CCN(CC)CCN1C(=O)C(=O)/C(=C(/O)c2ccc(OC)c(OC)c2)C1c1ccccn1 (centres undefined) | inconclusive: 14.1 µM [quencher, partial curve] |
| Cc1ccc2nsnc2c1S(=O)(=O)N1CCOCC1 | inconclusive: 11.2 µM [quencher, side channel, partial curve] |
| N#Cc1nc(-c2ccccc2F)oc1NCCN1CCOCC1 | inactive |
| O=[N+]([O-])c1cc(C(F)(F)F)ccc1NCCCN1CCOCC1 | inconclusive: 15.8 µM [quencher, side channel, partial curve] |
| Cc1cccc(NC(=O)c2ccc3nsnc3c2)c1C | inconclusive: 8.91 µM [quencher, side channel, partial curve] |
| Cc1cc(C)c2oc(C(=O)Nc3nnc(C(C)C)s3)cc(=O)c2c1 | inconclusive: 8.91 µM [quencher, side channel, single point] |
| O=C(Cn1ncc2c([nH]c3ccccc32)c1=O)N1CCN(c2ccc(F)cc2)CC1 | inactive |
| COc1ccc(CN(CCC(c2ccccc2)c2ccc(OC(C)C)cc2)C(=O)CCl)cc1OC (centres undefined) | inconclusive: 10 µM [fluorescent, side channel, partial curve] |
| Cn1c2ccc(F)cc2c2nnc(SCC(=O)Nc3cccc(O)c3)nc21 | inconclusive: 17.8 µM [quencher, side channel, partial curve] |
| Cn1cnnc1SCc1ccc(C(=O)N/N=C/c2cccs2)cc1 | inconclusive: 22.4 µM [quencher, side channel, single point] |
| N#C/C(=C\c1cc(O)c(O)c(O)c1)C(N)=O | inconclusive: 10 µM [quencher, side channel, partial curve] |
| CCN1/C(=C2\C(=O)N(C)C(=S)N2C)C=Cc2cc(C)ccc21 | inconclusive: 3.55 µM [quencher, side channel, full curve] |
| CCN(Cc1ccccc1)C(=O)CC(=O)N(CC)Cc1ccccc1 | inactive |
| Cc1cc(S(=O)(=O)NCc2ccccc2)ccc1OCC(=O)NCc1ccccn1 | inactive |
| O=C(CSc1nc2nccnc2c(=O)n1Cc1cccs1)Nc1ccccc1 | inconclusive: 15.8 µM [quencher, side channel, partial curve] |

| Compound | Potency |
| --- | --- |
| O=C(CSc1nnc2c(Cl)cc(Cl)cn12)N1CCN(S(=O)(=O)c2ccccc2)CC1 | inconclusive: 28.2 µM [quencher, single point] |
| CC1(C)CC(=O)C(Sc2ccc(Br)cc2)=C(O)C1 | inactive |
| Cc1cccc(NC(=O)C2C3C=CC(C4CC34)C2C(=O)O)c1 (centres undefined) | inconclusive: 50.1 µM [inhibitor, single point] |
| COC(=O)/C(C#N)=C/c1ccc(-c2ccc(S(N)(=O)=O)cc2)o1 | inconclusive: 3.98 µM [quencher, side channel, full curve] |
| O=C1c2ccccc2-c2nc3ccccc3cc21 | inconclusive: 7.94 µM [quencher, side channel, partial curve] |
| O=C(NCc1ccccc1)c1ccc2c(c1)C(=O)N(Cc1cccnc1)C2=O | inconclusive: 14.1 µM [quencher, side channel, partial curve] |
| Cc1ccc(C(=O)NNC(=O)c2nn(-c3ccc(F)cc3)ccc2=O)cc1 | inconclusive: 12.6 µM [quencher, side channel, partial curve] |
| Cc1ccc(S(=O)(=O)N(CC2CO2)c2cccc([N+](=O)[O-])c2)cc1 (centres undefined) | inconclusive: 25.1 µM [quencher, side channel, partial curve] |
| Cc1cc(=O)n2[nH]c(-c3cccc(Cl)c3)cc2n1 | inactive |
| O=c1[nH]c(O)c(/C=C2\C=Nc3ccccc32)[nH]1 | inconclusive: 20 µM [quencher, partial curve] |
| COc1ccc(OCCOc2ccc(C)nc2[N+](=O)[O-])cc1 | inconclusive: 17.8 µM [quencher, side channel, partial curve] |
| Cc1cc(Oc2nc3c(C)cccn3c(=O)c2/C=C(\C#N)S(=O)(=O)c2ccccc2)ccc1Cl | inconclusive: 0.1 µM [fluorescent, side channel, full curve] |
| Clc1cc(-c2ccc(/C=N/n3cnnc3)o2)ccc1Br | inconclusive: 2.24 µM [quencher, side channel, single point] |
| O=C(Nn1cnnc1)c1ccc([N+](=O)[O-])cc1 | inconclusive: 28.2 µM [quencher, side channel, single point] |
| O=[N+]([O-])c1ccc2[nH]ncc2c1 | inconclusive: 17.8 µM [quencher, partial curve] |
| Cc1nc2ccc(NC(=S)NCc3ccccc3)cc2nc1C | inconclusive: 28.2 µM [quencher, side channel, partial curve] |
| O=C(c1ccccc1[N+](=O)[O-])N1CCCN(C(=O)c2ccccc2[N+](=O)[O-])CC1 | inconclusive: 20 µM [quencher, side channel, partial curve] |
| CCCn1c(NC(=O)c2ccccc2Br)nc2ccccc21 | inactive |
| CC(=O)c1cccc(Nc2c3c(nc4ccccc24)CCC3)c1 | inactive |
| S=C(NCCN1CCOCC1)N/N=C/c1c2ccccc2cc2ccccc12 | inconclusive: 10 µM [quencher, side channel, partial curve] |
